Reference: the BET-seq Pho4 binding data (Le et al. 2018)
The other results are listed elsewhere or left out. Values were computed here from the reads of four pooled replicates and scatter widely.

biological target: T1, Pho4 (S. cerevisiae) (UniProt P07270); assay: relative binding free energy (BET-seq); higher = weaker binding; details: reference: library average
T1 sequence: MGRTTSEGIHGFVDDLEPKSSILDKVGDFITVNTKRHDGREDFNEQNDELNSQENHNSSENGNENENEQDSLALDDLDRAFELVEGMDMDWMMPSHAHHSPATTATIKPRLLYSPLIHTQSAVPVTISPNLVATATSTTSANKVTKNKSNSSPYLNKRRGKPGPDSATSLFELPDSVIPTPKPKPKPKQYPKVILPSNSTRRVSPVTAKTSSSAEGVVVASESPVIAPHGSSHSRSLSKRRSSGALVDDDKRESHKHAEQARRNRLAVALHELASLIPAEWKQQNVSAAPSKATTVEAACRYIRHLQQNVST

Sequence | relative binding free energy
GGTTCCACGTGGGAGT | -0.01 kcal/mol
CGTAGCACGTGCGTGG | -0.16 kcal/mol
GTCTTCACGTGTCTGT | 0.36 kcal/mol
CGGGGCACGTGGTTTC | -0.21 kcal/mol
TTTTACACGTGGTAGC | 0.19 kcal/mol
TCTGCCACGTGTTGGG | -0.06 kcal/mol
GTGGGCACGTGCAAGT | -0.1 kcal/mol
AATGGCACGTGACGGC | 0.21 kcal/mol
GTCGTCACGTGTTGTT | 0.19 kcal/mol
CGGGGCACGTGTCTGT | -0.05 kcal/mol
GTTTTCACGTGTGAGA | 0.36 kcal/mol
CTTGTCACGTGAGTGG | 0.22 kcal/mol
ATTTACACGTGCGTGT | -0.03 kcal/mol
TGTGACACGTGACAGG | 0.16 kcal/mol
GAGGGCACGTGTCTTT | -0.04 kcal/mol
AATGTCACGTGCGGGG | -0.06 kcal/mol
ATGTACACGTGTACGG | 0.04 kcal/mol
TTACGCACGTGGGGTA | -0.37 kcal/mol
GGCGGCACGTGATAAG | 0.23 kcal/mol
CAAGGCACGTGTAGGT | -0.05 kcal/mol
TTGTCCACGTGGGGTA | -0.18 kcal/mol
CGGAACACGTGGAGTT | 0.23 kcal/mol
AAAGTCACGTGAGTGG | 0.38 kcal/mol
AATCGCACGTGAGTGA | 0.26 kcal/mol
CGTTGCACGTGGGTTC | -0.18 kcal/mol
GTCTGCACGTGTTTGG | 0.18 kcal/mol

Sequence | relative binding free energy
GCTGTCACGTGTGAGG | 0.21 kcal/mol
AGGTACACGTGTGTGG | 0.13 kcal/mol
AATGACACGTGGGGTT | -0.14 kcal/mol
AAGTCCACGTGAGGAG | 0.38 kcal/mol
AGTACCACGTGGTGTA | -0.23 kcal/mol
GTTACCACGTGGGGCT | -0.13 kcal/mol
GCGGCCACGTGGGGGC | -0.2 kcal/mol
GGGGTCACGTGATGTA | 0.19 kcal/mol
AAGTGCACGTGATAAG | 0.08 kcal/mol
GTAGTCACGTGGTGTA | 0.06 kcal/mol
TTGATCACGTGCCGTT | 0.12 kcal/mol
TCGTACACGTGTTTGT | 0.04 kcal/mol
GTAGGCACGTGCCTGG | -0.18 kcal/mol
GCGTTCACGTGGTGCG | 0.29 kcal/mol
TCTTGCACGTGGAGGG | -0.04 kcal/mol
TTGGGCACGTGTAGTC | 0.02 kcal/mol
TAATTCACGTGGGAGC | 0.2 kcal/mol
ATGGGCACGTGCTGCT | -0.25 kcal/mol
TGAATCACGTGTGGCG | 0.23 kcal/mol
GTGGGCACGTGATAGA | 0.13 kcal/mol
TGTGCCACGTGCTTGG | -0.22 kcal/mol
TTAGCCACGTGAGTTT | 0.16 kcal/mol
GTAGTCACGTGTATCT | 0 kcal/mol
CTAATCACGTGGGGTT | 0.04 kcal/mol
ATGGACACGTGTAGCG | -0.01 kcal/mol
AGGTCCACGTGCAGGT | -0.14 kcal/mol

Sequence | relative binding free energy
GATTGCACGTGTAGAG | 0.04 kcal/mol
AAAAGCACGTGGGATT | -0.04 kcal/mol
CCGTGCACGTGGGTGG | -0.15 kcal/mol
AGGAGCACGTGGGTTG | -0.21 kcal/mol
AGTTTCACGTGGTGAA | 0.27 kcal/mol
TGTCTCACGTGTGCTG | 0.11 kcal/mol
TAAGGCACGTGGATCG | -0.17 kcal/mol
GATGACACGTGTGTGG | 0.22 kcal/mol
GACGGCACGTGTGAAG | 0.15 kcal/mol
GGCTGCACGTGTAGGT | 0.06 kcal/mol
TTTGTCACGTGTGTTT | 0.21 kcal/mol
TGCAGCACGTGGAGGC | -0.16 kcal/mol
GTTTTCACGTGCTTTA | 0.3 kcal/mol
ACATTCACGTGCGGGG | 0.19 kcal/mol
GGATACACGTGGTCGG | 0.04 kcal/mol
AATATCACGTGGATAG | 0.32 kcal/mol
TGTGTCACGTGTGCAG | 0.03 kcal/mol
TAAGGCACGTGGTCGG | -0.21 kcal/mol
GGGCCCACGTGTGGGA | -0.01 kcal/mol
TGAGGCACGTGTATGT | -0.12 kcal/mol
TGCTTCACGTGGGATT | 0.08 kcal/mol
TTTATCACGTGAAATG | 0.51 kcal/mol
TGCAGCACGTGGGCTG | -0.27 kcal/mol
TGTTCCACGTGCTAGG | -0.1 kcal/mol
TATAACACGTGTGGTG | -0.09 kcal/mol
GTAGGCACGTGCGCGT | -0.17 kcal/mol

Sequence | relative binding free energy
TTTGTCACGTGAGATG | 0.25 kcal/mol
TTCATCACGTGGGTGA | 0.03 kcal/mol
GATTTCACGTGTGATT | 0.34 kcal/mol
TGGTGCACGTGCTGAG | -0.12 kcal/mol
GATGGCACGTGGAGGC | -0.18 kcal/mol
GGTGACACGTGAATAG | 0.38 kcal/mol
TCTTTCACGTGGTGAA | 0.2 kcal/mol
CTTGTCACGTGAGGTA | 0.1 kcal/mol
TCGGTCACGTGCTTGA | 0.11 kcal/mol
AGGGGCACGTGAGTCT | 0.24 kcal/mol
TTGGGCACGTGGGAGA | -0.23 kcal/mol
TGCGTCACGTGAAGTG | 0.1 kcal/mol
ATGAACACGTGAGGTT | 0.27 kcal/mol
TTTAGCACGTGAGCTG | 0.24 kcal/mol
TGAGTCACGTGGCGCG | -0.07 kcal/mol
TAGTGCACGTGACTTT | 0.13 kcal/mol
AACTGCACGTGGGGTG | -0.36 kcal/mol
TCGGTCACGTGTTGGC | 0.07 kcal/mol
ATTGTCACGTGCAGAT | 0.07 kcal/mol
TGGTGCACGTGCGTTG | -0.08 kcal/mol
TAGTCCACGTGGGGCG | -0.04 kcal/mol
TTTGACACGTGCTTTA | -0.11 kcal/mol
TGGTACACGTGGTACG | 0.03 kcal/mol
GTTCACACGTGGATGT | 0.14 kcal/mol
TTCGACACGTGGAAGG | 0.17 kcal/mol
TCATGCACGTGGTGTA | -0.13 kcal/mol

Sequence | relative binding free energy
ATGAGCACGTGTGGTG | -0.12 kcal/mol
TCTGGCACGTGGTGGA | -0.07 kcal/mol
CAGGGCACGTGTAGAG | 0.04 kcal/mol
TACGTCACGTGTCGTT | 0.02 kcal/mol
TTCGGCACGTGATTCG | 0.11 kcal/mol
CGGGACACGTGAGGCG | 0.13 kcal/mol
TGTTGCACGTGTCAAT | -0.03 kcal/mol
ATGAGCACGTGGTCTT | -0.21 kcal/mol
ATTAGCACGTGAACGT | 0.1 kcal/mol
GGGAGCACGTGTGCGG | -0.03 kcal/mol
GTCGACACGTGTGGGG | 0.15 kcal/mol
TTGAGCACGTGCATGG | -0.08 kcal/mol
GAAGACACGTGGATGG | 0.18 kcal/mol
GTGATCACGTGTATTG | 0.07 kcal/mol
GGGGACACGTGGGGCT | -0.01 kcal/mol
GGGCGCACGTGGCGAT | -0.03 kcal/mol
GCTGACACGTGGTGTT | -0.11 kcal/mol
ATGTGCACGTGTTCAG | -0.04 kcal/mol
AGCGGCACGTGCGGGG | -0.25 kcal/mol
GGCCGCACGTGGGGAG | -0.27 kcal/mol
GTATCCACGTGTAGTT | 0.17 kcal/mol
TATAACACGTGAGTGA | 0.24 kcal/mol
TCGTGCACGTGAGGTT | 0.33 kcal/mol
TACGGCACGTGTGGTT | -0.01 kcal/mol
CAGGACACGTGCTGGG | -0.02 kcal/mol
TATGTCACGTGTCGCG | 0.06 kcal/mol

Sequence | relative binding free energy
TTACTCACGTGGGTTA | -0.02 kcal/mol
AGTTTCACGTGGCGAG | 0.22 kcal/mol
TCGAGCACGTGTTTTT | 0.01 kcal/mol
TTGTTCACGTGGGCCG | 0.22 kcal/mol
GGCTACACGTGTGGGT | 0.18 kcal/mol
TAGTGCACGTGGATTC | 0.09 kcal/mol
TCTATCACGTGTTGGA | 0.18 kcal/mol
TGAGGCACGTGATATT | 0 kcal/mol
GTTTTCACGTGTGGTA | 0.21 kcal/mol
TTACACACGTGTGGAG | 0.07 kcal/mol
AAATTCACGTGGCGTT | 0.24 kcal/mol
ATGCACACGTGAGGGG | 0.1 kcal/mol
CTTAGCACGTGTGGTT | -0.07 kcal/mol
TCATTCACGTGGTTTT | 0.21 kcal/mol
TTGTACACGTGGAAGA | 0.18 kcal/mol
CTATACACGTGTTGAG | 0.17 kcal/mol
GAGCGCACGTGATGGG | 0.27 kcal/mol
TTGGCCACGTGCTTGT | -0.19 kcal/mol
CGGTTCACGTGCGTGT | 0.1 kcal/mol
TGATGCACGTGTTACT | -0.07 kcal/mol
TTCAACACGTGAGGGG | 0.21 kcal/mol
TGACGCACGTGGAGTT | -0.01 kcal/mol
TGTTCCACGTGTTAGG | 0.1 kcal/mol
CATGGCACGTGATTTG | 0.18 kcal/mol
TGTAGCACGTGTGGAC | 0.13 kcal/mol
GTTTACACGTGCGTAT | 0.16 kcal/mol

Sequence | relative binding free energy
TAGTACACGTGGTGTA | -0.21 kcal/mol
TATTTCACGTGTCGGC | 0.28 kcal/mol
AGGGTCACGTGCGGAA | 0.11 kcal/mol
GTAAGCACGTGTATTG | -0.01 kcal/mol
GGAGTCACGTGTAGTC | 0.32 kcal/mol
TTTCACACGTGTGTAA | 0.09 kcal/mol
GATGTCACGTGTACGT | 0.09 kcal/mol
TAGTCCACGTGGTAGT | 0.14 kcal/mol
GTGGCCACGTGCTTAG | 0.05 kcal/mol
CATAGCACGTGGAGAT | 0.09 kcal/mol
AGGAGCACGTGGGGAC | -0.15 kcal/mol
TGTAACACGTGGGTGC | -0.25 kcal/mol
TATTTCACGTGAATCT | 0.36 kcal/mol
TGCATCACGTGGTATA | 0.31 kcal/mol
AGAATCACGTGTTTAG | 0.13 kcal/mol
TAGAGCACGTGTTTTT | -0.02 kcal/mol
TGATGCACGTGTATTG | -0.02 kcal/mol
TTGTGCACGTGGTGTA | -0.18 kcal/mol
GAGTTCACGTGCTTGG | 0.32 kcal/mol
TGAAACACGTGGGATA | 0.08 kcal/mol
TGGACCACGTGGGCGG | -0.14 kcal/mol
TGGGACACGTGGTTTA | 0.02 kcal/mol
CAGGTCACGTGAAGTG | 0.27 kcal/mol
CGTGGCACGTGCGTAG | -0.23 kcal/mol
GTTCGCACGTGGGTTC | -0.04 kcal/mol
GAGAGCACGTGAGTTG | 0.24 kcal/mol

Sequence | relative binding free energy
GGTGTCACGTGCCTGG | 0.08 kcal/mol
TTTAACACGTGGTACG | -0.04 kcal/mol
GAAAACACGTGTGTGT | 0.09 kcal/mol
ATTAGCACGTGTCGTG | -0.22 kcal/mol
CGGTGCACGTGGGAGA | -0.11 kcal/mol
CTGTTCACGTGTGGCG | 0.31 kcal/mol
TGAGGCACGTGGCGTG | -0.24 kcal/mol
GTGTACACGTGCGTGG | -0.09 kcal/mol
ATGCTCACGTGTGAGG | 0.28 kcal/mol
GGCTGCACGTGGTCTT | -0.03 kcal/mol
GGTAGCACGTGGGCGC | -0.12 kcal/mol
TGTGTCACGTGGGGCG | -0.01 kcal/mol
GGAGGCACGTGATTTT | 0.08 kcal/mol
GGAGTCACGTGGTAAA | 0.16 kcal/mol
TGCGTCACGTGAACTT | 0.36 kcal/mol
AATTTCACGTGTAGAG | 0.29 kcal/mol
AGATGCACGTGCGTTA | -0.03 kcal/mol
AAGTACACGTGATAGG | 0.18 kcal/mol
ATCTGCACGTGGTTTG | -0.23 kcal/mol
AAGAGCACGTGTGAAG | 0.12 kcal/mol
GTATACACGTGTTTTA | 0.04 kcal/mol
AATCTCACGTGTGTAT | 0.23 kcal/mol
AGCAACACGTGGGGGA | -0.09 kcal/mol
AGAGTCACGTGAATGG | 0.31 kcal/mol
TTTGTCACGTGATATC | 0.25 kcal/mol
GGCGCCACGTGGAGTG | -0.15 kcal/mol

Sequence | relative binding free energy
GGTTGCACGTGGTCGT | -0.03 kcal/mol
TCTAGCACGTGGTGGG | -0.04 kcal/mol
TGGTACACGTGTTATA | 0.03 kcal/mol
GGGTCCACGTGTGTGG | 0.07 kcal/mol
GTGCACACGTGGGTTT | 0.06 kcal/mol
CACATCACGTGGGGGG | -0.02 kcal/mol
AAAAGCACGTGGGTTT | -0.2 kcal/mol
GTCCTCACGTGTGTTT | 0.2 kcal/mol
TGACGCACGTGGTGTT | -0.24 kcal/mol
GTTGACACGTGCGATT | 0.16 kcal/mol
CATGTCACGTGTAGTT | 0.22 kcal/mol
GAGGCCACGTGTGATG | 0.15 kcal/mol
AGTAGCACGTGGATTT | -0.03 kcal/mol
TGGATCACGTGTGGGG | 0.25 kcal/mol
GCTTACACGTGTAGGA | 0.33 kcal/mol
GTATACACGTGAGGTG | 0.32 kcal/mol
ATATTCACGTGTAGGA | 0.21 kcal/mol
GTTAACACGTGGTAAT | 0.02 kcal/mol
TCCATCACGTGGTTTG | 0.14 kcal/mol
TGTTTCACGTGTTGCT | 0.24 kcal/mol
AAATTCACGTGGGCTT | 0.16 kcal/mol
AAAGTCACGTGTTGGC | 0 kcal/mol
